# Laboratory results reported in paper PMC12040169 (PLOS Biology, 2025).
# The list shows a part of the results.
# System: T1, C. trachomatis L2/434/Bu expressing GFP (CTL2-GFP)
# T1 construct: L2/434/Bu GFP intracellular growth in HeLa cells
# Set-up: species or system HeLa; C. trachomatis total inclusion area by high-content imaging, normalised to DMSO
# Conditions: total inclusion area; 28.5 h, 10 µM; inhibitor
# Procedure, shortened: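 Following bulk GFP and resorufin fluorescence reads, infected cells were fixed, Hoechst-stained and imaged on a high-content platform. Inclusion total area and number per well served as growth proxies; nuclei counts indicated host viability. MICs were derived as for the fluorescence assay.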
row,SMILES,% of control remaining
1,C#CCN(C)CC[C@@H]1CC[C@H](O)[C@@H](C(=O)NC(C)C)O1 [CBK288718],90.848
2,CCn1cc(CN2CCN(C(=O)C3C4CCCCC43)CC2)c(C)n1 (stereo not shown) [CBK281545],88.9931
3,COc1ccccc1Cc1cccc(C2CCCN2C(=O)c2ccc(F)cc2)n1 (stereo not shown) [CBK286239],101.307
4,O=C(NCc1ccc(Cl)cc1)N1CCCC(CO)C1 (stereo not shown) [CBK156053],101.927
5,COCCCN(Cc1ccccn1)Cc1cc(F)ccc1F [CBK282950],75.6099
6,CCS(=O)(=O)N1CCC(C(=O)NC2CC(C)(C)Oc3ccccc32)CC1 (stereo not shown) [CBK304364],112.515
7,CCOc1ccc(N2C(=O)CC(N3CCN(CCc4ccncc4)CC3)C2=O)cc1 (stereo not shown) [CBK269930],128.496
8,Cc1cc(C)c(S(=O)(=O)N(CC(=O)O)C2CCCCC2)c(C)c1 [CBK266663],109.806
9,CCCc1cc(O)nc(SC(C)C(=O)N2CCOCC2)n1 (stereo not shown) [CBK305030],75.1952
10,N#C/C(=C\c1ccccc1O)C(=O)Nc1sc2c(c1C(N)=O)CCCC2 [CBK263644],80.5631
11,CCC(O)Cn1nc(CCSC)nc1-c1ccc2[nH]ccc2c1 (stereo not shown) [CBK307526],75.1121
12,O=C(Nc1ccc(F)cc1F)Nc1cc(Cl)sc1Cl [CBK019967],72.2486
13,N=C(SC1CC(=O)N(c2ccc(C(=O)O)cc2)C1=O)N1N=C(c2ccccc2)CC1c1ccccc1 (stereo not shown) [CBK262446],105.174
14,CC(C)(C)c1cc(NC(=O)c2csc3c(C(F)(F)F)cc(N4CCN(Cc5ccccc5)CC4)nc23)no1 [CBK028962],57.9316
15,CC1(C)CC(=O)C=C(C(=O)NCc2ccc3c(c2)OCO3)O1 [CBK153290],115.368
16,O=C(O)C1CC=C(Cl)CC1C(=O)Nc1ccc(Cl)cc1[N+](=O)[O-] (stereo not shown) [CBK265612],101.857
17,CCc1cc(C(=O)OC)c(NC(=O)CC2Nc3cccc4cccc(c34)NC2=O)s1 (stereo not shown) [CBK267563],88.3699
18,COc1ccccc1-c1noc(CN2CCCC(C(F)(F)F)C2)n1 (stereo not shown) [CBK305598],75.9605
19,CCOc1ccc(NC(=O)C(=O)NC2CCCCC2)cc1 [CBK261822],101.935
20,Cc1nc(CN2CCCN(S(=O)(=O)c3ccc(C(=O)c4ccccc4)cc3)CC2)c[nH]1 [CBK063029],82.5419
21,CC(C)(C)COC(=O)N1CCC2(CC1)CC(=O)N(Cc1ccc(S(C)(=O)=O)cc1)C2=O [CBK155949],52.1561
22,Cc1ccc(-c2noc([C@@H]3C[C@H](NC(=O)CCC(=O)O)CN3C)n2)cc1 [CBK288852],92.5421
23,C[C@@H](c1ccccc1)n1c(=O)[nH]c2ncc(-c3cncc4ccccc34)nc21 [CBK064726],76.6708
24,O=S(=O)(c1ccccc1)C1CCCCO1 (stereo not shown) [CBK020284],97.4909
25,CCOCCC(=O)N/N=C(/C)c1ccc(Cl)s1 [CBK007454],105.067
26,COc1ccccc1-c1ccc(NS(=O)(=O)c2ccc3c(c2)CCC(=O)N3)cc1 [CBK286353],110.055
27,Cc1ccc(CN(CCCn2ccnc2)Cc2nccn2C)s1 [CBK283137],101.398

row,SMILES,% of control remaining
1,CN1CCN(c2nc(-c3ccc4c(c3)CCCC(=O)N4)cs2)CC1 [CBK305600],39.0875
2,Cn1nc2c(cc1=O)CN(C(=O)c1ccc3cc[nH]c3c1)CC2 [CBK304343],60.5884
3,CS(=O)(=O)N(CC(=O)Nc1ccccc1C(=O)N1CCCC1)c1cc(Cl)c(Cl)cc1Cl [CBK268826],87.79
4,COc1ccc(C)cc1S(=O)(=O)Nc1cc(N2CCNC(C(F)(F)F)C2)c2occc2c1 (stereo not shown) [CBK073818C],104.439
5,O=C(Cn1cc(C(=O)NCC2(c3ccccc3Cl)CC2)ccc1=O)NC1CCCCC1 [CBK285985],108.183
6,O=C(N/C(=C/c1ccccc1)C(=O)N1CCCCC1)c1ccccc1 [CBK261280],84.3601
7,CC1Cc2cc(C(O)CN3CCC4CCCCC4C3)ccc2N1S(C)(=O)=O (stereo not shown) [CBK286456],80.9019
8,C[C@]12CN(Cc3ccccc3)C[C@H]1CNc1ccccc1C(=O)N2 [CBK282932],122.682
9,CCOC(=O)C1CCCN(CCC(=O)Nc2cccc(C)c2)C1 (stereo not shown) [CBK264158C],96.1257
10,CN1C(=O)COc2ccccc2CCCC[C@@H]2[C@H]1CCCN2C(=O)CNS(C)(=O)=O [CBK292118],67.9394
11,O=C1CC2(CCC3C(C(=O)N4CCCC4)C32)Oc2ccccc21 (stereo not shown) [CBK284969],77.9466
12,COc1cncc(-c2cncc(Nc3cc(OC)c(OC)c(OC)c3)n2)c1 [CBK065397],73.2621
13,COCc1ccc(C(=O)N2CCC(Cc3ccccc3-c3cccs3)(C(N)=O)CC2)cc1 [CBK286276],118.433
14,Clc1ccc(OCCOc2ccccc2)nn1 [CBK176034],46.274
15,O=C1CCOC[C@]2(CN(Cc3ccccc3)C[C@H]2c2ccccc2)N1 [CBK283367],111.487
16,COc1cccc(Cn2c(=O)[nH]n(-c3ccccc3)c2=O)c1 [CBK122771],78.4573
17,NC(=O)CN1CCC[C@@H]2NC(=O)COc3ccccc3C(=O)N[C@@H]3CCOC[C@@H]3C/C=C/C[C@@H]21 [CBK292041],91.3894
18,CC(C)(C)NS(=O)(=O)c1ccc(OCC(=O)NCc2ccncc2)cc1 [CBK266434],104.158
19,c1ccc(-c2csc(Nc3cccnc3)n2)nc1 [CBK267184],84.3562
20,O=C(NC(C(=O)O)c1ccccc1)NC12CC3CC(CC(C3)C1)C2 (stereo not shown) [CBK268313],93.9365
21,O=S(=O)(c1ccc2ccccc2c1)N1CCN(CCCOc2ccccc2Cl)CC1 [CBK267018],105.047
22,COc1cc(-c2nnc(CSc3nc4sc(C(=O)O)c(C)c4c(=O)[nH]3)o2)cc(OC)c1OC [CBK296973],97.9555
23,CCCc1nnc2sc(C3CCC(=O)N(C(C)C)C3)nn12 (stereo not shown) [CBK306942],45.9388
24,COc1ccc(Sc2nc(SC)nc(-c3ccccc3)c2C#N)cc1 [CBK291212],99.0767
25,O=C1c2ccccc2CN1c1cccc(Cl)c1Cl [CBK109916],97.4552
26,COCOc1ccc(-c2ncc(OCCN3CCOCC3)nc2N)cc1 [CBK145100],104.604
27,O=C(Nc1cncc(OC2CCNCC2)n1)c1cccnc1 [CBK036375T],82.8545

row,SMILES,% of control remaining
1,Cc1nc(C2CCCCN2C(=O)C2CCCCC2)ncc1C(=O)NCc1ccc(F)cc1 (stereo not shown) [CBK285554],105.496
2,c1cn2cnnc2c(N2CCOC(c3ccsc3)C2)n1 (stereo not shown) [CBK306379],84.4121
3,Cc1ccc2nc(CSc3ncnc4sc(C)cc34)[nH]c2c1 [CBK270047],99.8948
4,COc1ccccc1N1C(=O)c2ccc(C(=O)Nc3cc([N+](=O)[O-])ccc3O)cc2C1=O [CBK264272],113.997
5,O=C(c1ccccc1)n1c(=S)nc2n(c1=S)CCN2 [CBK021794],46.6756
6,CC(C)C(=O)Nc1ccc2nc(-c3ccoc3)c(-c3ccoc3)nc2c1 [CBK286304],86.4348
7,CSc1cccc(CN2C[C@H]3CN(C(=O)C4CCC4)C[C@@]3(C(=O)O)C2)c1 [CBK307645],65.7664
8,CN1C2C=C(N(CCc3ccccc3)C(=O)c3ccc(Cl)cc3)CC1CC2 (stereo not shown) [CBK262604C],104.891
9,Oc1ccc(/C=N/c2nnn[nH]2)cc1 [CBK260976],69.1066
10,Cc1noc(C)c1C(=O)N1CCN(CCc2ccccc2)CC1 [CBK200225],104.924
11,O=C(O)CSc1nnc(-c2ccc(F)cc2)o1 [CBK068115],89.8934
12,CC1CCCCN1Cc1ccc(-c2nnn(CC(=O)NCc3ccco3)n2)cc1 (stereo not shown) [CBK122002],106.762
13,CCn1c(/C=C/C2=CCN(C)CC2)nc2ccccc21 [CBK283745],95.8043
14,COC(=O)c1sc(NC(=O)C2CCCCC2C(=O)O)c(C(=O)OC)c1C (stereo not shown) [CBK265389],97.0871
15,NCCCOc1cncc(N2CCCC2)n1 [CBK115603],102.514
16,Cc1ccc(OCC(=O)NC(=S)Nc2cccc(-c3nc4ncccc4o3)c2C)cc1 [CBK263925],87.4274
17,Cc1ccc(C)c(CSC2CCN(C3CCOCC3)C2=O)c1 (stereo not shown) [CBK304865],49.0271
18,O=C(O)c1ccc(CN2CCOC[C@H]2c2nc(-c3ccc(C(F)(F)F)cc3)c[nH]2)cc1 [CBK289317],97.7716
19,COc1ccc2c(ccn2S(=O)(=O)c2ccc(N3CCNCC3)c(C(F)(F)F)c2)c1 [CBK034033C],39.846
20,CN1CCC(N2CCN(C(=O)Nc3cccnc3)CC2)CC1 [CBK156111],61.9753
21,Cc1nc(C)c(-c2csc(Nc3ccc(C(=O)O)c(O)c3)n2)s1 [CBK267263],112.049
22,CCC(Oc1ccccc1)C(=O)Nc1cc(OC)c(Cl)cc1OC (stereo not shown) [CBK262235],91.3634
23,COc1ccc(C(=O)NCCCc2nc3ccccc3[nH]2)cc1OC [CBK270018],97.7327
24,Cc1cc(C[C@@H]2COC[C@H]2NCc2c(F)cccc2Cl)on1 [CBK282994],89.9827
25,O=C(COc1ccc2oc3c(c2c1)CCCC3)Nc1cccc2cccnc12 [CBK266137],125.945
